Data published in publication PMC6212790.
The other results are listed elsewhere or left out. At the low end of the ranking the order means little.

target: T1, GST-Rok-C97-191 (UniProt O34857); experiment: protein binding microarray; settings: Rok is a gene silencer of Bacillus subtilis; high values mean tight binding; most listed sequences are background and not binding sites; double strand, one strand shown;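 note: rank score from −0.5 (least bound) to 0.5 (best bound)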
T1 sequence: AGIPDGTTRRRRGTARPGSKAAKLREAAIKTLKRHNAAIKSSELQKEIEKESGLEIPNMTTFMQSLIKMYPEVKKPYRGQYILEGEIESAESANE

Row | Sequence | binding signal [E-score]
1 | AGTATTAC | 0.307
2 | AGGTCCGC | -0.182
3 | TCTTCACA | 0.0725
4 | ACCCCACG | -0.16
5 | AGTTCAGG | -0.0399
6 | ACACTCGC | 0.0723
7 | TAAGCAGA | -0.0954
8 | ATAATTGG | 0.25
9 | TACCGAAA | 0.188
10 | CTTAAGGA | -0.119
11 | GGCCTAGA | -0.0387
12 | TGGCGAAA | 0.0439
13 | GAGATAGC | 0.023
14 | GTTTGAGA | 0.128
15 | AGTCGCAG | -0.091
16 | AGACCCAT | 0.113
17 | CCTTGGAC | -0.131
18 | ACGACCAG | -0.141
19 | GCTTTATA | 0.087
20 | ATCGTCAG | -0.0862
21 | CAGACCGA | -0.0418
22 | CGGGCACA | -0.127

Row | Sequence | binding signal [E-score]
23 | GCTGGACC | -0.155
24 | CGGTCACC | -0.113
25 | AACAGCGG | -0.0981
26 | AAGCTTTG | -0.0491
27 | CGGTGCTA | -0.0714
28 | GCCAGAGA | -0.0535
29 | ATGTATCC | 0.131
30 | GCCCCCGC | -0.246
31 | CTCTCCTC | -0.229
32 | AGCCCATC | -0.28
33 | ACGCGCCA | -0.132
34 | CACGAACG | -0.142
35 | ACTGGTTC | 0.0803
36 | CGCGTATA | 0.112
37 | AGCCTTCC | -0.293
38 | GGGCTCAC | -0.218
39 | ATAGGGCG | -0.0786
40 | CACGCACA | 0.0384
41 | AACTAAGC | -0.002
42 | AGCTCAGA | -0.0615
43 | AGCAACTG | -0.0869
44 | ACTCCGCA | -0.026

Row | Sequence | binding signal [E-score]
45 | GCGCGGAA | -0.0279
46 | ATGTCATA | 0.166
47 | AAGTGGTA | 0.385
48 | CACGGATG | -0.0672
49 | CCATCGTA | 0.0759
50 | ACAGTGCG | -0.137
51 | ATGCCCAG | -0.301
52 | AGAGAGCG | -0.249
53 | CGTGGGTA | -0.0297
54 | CTCAAGAA | 0.0364
55 | AGCGTGCA | -0.122
56 | ATACCTAG | 0.253
57 | CGCTGAAC | -0.22
58 | AACTTTGG | -0.0234
59 | ACTAGTCC | -0.0796
60 | CTAGACAG | -0.0919
61 | AATAGTCA | 0.186
62 | GAGTGAGA | -0.071
63 | CTCGCTAC | 0.102
64 | AAGGCACT | -0.0606
65 | ATTCACGC | 0.045
66 | CTCTGCTC | -0.0467

Row | Sequence | binding signal [E-score]
67 | CCCACCAC | -0.342
68 | AGATGGTA | 0.269
69 | GATCTGAC | -0.0267
70 | CACCAGCC | -0.202
71 | CTTCCAAG | -0.117
72 | CCGAGACA | -0.0987
73 | GCGGGACC | -0.341
74 | CGGGCCGA | -0.218
75 | CAACGGAC | -0.085
76 | CTAGACCC | -0.14
77 | AGCGAAAC | -0.0243
78 | TACCACGA | -0.0495
79 | ATATTTCA | 0.209
80 | CCTCTCGA | -0.0079
81 | CACTTCCC | -0.23
82 | CCCATACA | -0.0881
83 | ACACTCCA | -0.114
84 | CGTGAAAA | -0.0271
85 | ACATTTTC | 0.25
86 | AGTCTTAC | -0.0282
87 | CAACGATC | -0.0668
88 | AGCAGACC | -0.211

Row | Sequence | binding signal [E-score]
89 | ACGTAACA | 0.138
90 | CCGGACGG | -0.16
91 | GGCACGAC | -0.111
92 | CTATTTAA | 0.14
93 | CATTTTTC | 0.0874
94 | CTGATGCA | -0.00113
95 | AGGTAGGC | -0.0746
96 | ACATCCGC | -0.0238
97 | CATGGGCG | -0.142
98 | AAGCGGGG | -0.141
99 | TCGCCAGA | -0.108
100 | GGAATTAC | 0.176
101 | CTACCATA | 0.324
102 | GAGAAGCA | 0.0593
103 | CGAAGTCA | 0.0513
104 | GTGGTTCA | -0.0356
105 | CGCCAGCC | -0.311
106 | CGTCGCCC | -0.269
107 | GACACTAA | 0.185
108 | CTTGCCAC | -0.0529
109 | AAAAGTCA | -0.0792
110 | AGACCCCC | -0.377
